According to PMC7819943, “Rice protein-binding microarrays: a tool to detect cis-acting elements near promoter regions in rice”:
The other results are listed elsewhere or left out.

These sequences were tested against T1, OsWOX13 (Oryza sativa, UniProt Q5QMM3 1-267) (assay: protein-binding microarray (RPBM); PBS, 2% BSA, 51.3 ng/ul salmon testes DNA, 50 uM zinc acetate, 200 nM TF, 25 C, 1 h; high values mean tight binding). Settings: protein: recombinant; tags: N-terminal polyhistidine and DsRed monomer fusion (pET32a); label: CyDye5-dUTP incorporated in the synthesized complementary strand; 3' TTTTT single-stranded linker to array surface; dsDNA, one strand shown.
T1 sequence: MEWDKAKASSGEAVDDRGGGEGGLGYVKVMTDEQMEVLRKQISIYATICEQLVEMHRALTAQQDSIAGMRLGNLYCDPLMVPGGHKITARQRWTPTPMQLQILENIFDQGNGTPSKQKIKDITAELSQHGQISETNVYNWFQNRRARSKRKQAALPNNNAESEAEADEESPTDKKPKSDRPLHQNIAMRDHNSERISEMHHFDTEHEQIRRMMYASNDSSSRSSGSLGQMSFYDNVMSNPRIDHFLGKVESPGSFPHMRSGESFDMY
How it was run: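 Per-feature fluorescence intensity (arbitrary units), read on an Axon 4000B scanner, is the binding signal. Transcription factors carrying an N-terminal polyhistidine tag and DsRed fusion were expressed in E. coli BL21-CodonPlus and purified on Ni–NTA. A custom Agilent array, made double-stranded by primer extension with Cy5-dUTP and blocked with 2% BSA, was incubated with 200 nM protein in PBS, 2% BSA, salmon testes DNA and 50 µM zinc acetate at 25 °C for 1 h and then washed.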

Sequence	binding signal
TTGGATTAGAATTTAATTTGAAGACGACATCCATTGGATACGGAGTCACCTAGTGCAG	28700 fluorescence intensity (a.u.)
CTTTAATTACCACCCGATCTCACCAACAAGCGGGGCAGCTCGGAGTCACCTAGTGCAG	20400 fluorescence intensity (a.u.)
AACTTTCATTCATTCAATCAATTTACAGAATGGGGTCCATCGGAGTCACCTAGTGCAG	26900 fluorescence intensity (a.u.)
TGAAATTGGTTGGTTTGGATACTTTGGGGTGCCAAGGTCACGGAGTCACCTAGTGCAG	7220 fluorescence intensity (a.u.)
ATGATTTCTTCATTTCAAATCAGTTCTGGTCCCCAAATAACGGAGTCACCTAGTGCAG	3830 fluorescence intensity (a.u.)
GGGTAAATTGGAACAATGTCATTATAATTTTGCAAAGTTTCGGAGTCACCTAGTGCAG	21400 fluorescence intensity (a.u.)
ATCGATTAACAGGTTAAATTGGAGCGTCACGGGCTAGTTCCGGAGTCACCTAGTGCAG	31800 fluorescence intensity (a.u.)
CTTACCTGCTTTAATTTATGCATAATGTTGCTTCATAAACCGGAGTCACCTAGTGCAG	6090 fluorescence intensity (a.u.)
CGCCGATGACAGACGGCTGCAAGCGCGCCAAGCGGGTGTTCGGAGTCACCTAGTGCAG	4040 fluorescence intensity (a.u.)
TGGAACAGGTATCAATCAAAGGTGGTGGACTAGGTAACTTCGGAGTCACCTAGTGCAG	17400 fluorescence intensity (a.u.)
TTGATCTACTCGATTGATATTTAGGGGAAGCAGACACAAACGGAGTCACCTAGTGCAG	3250 fluorescence intensity (a.u.)
ATTCTAATTTTGATAGATAATTTCACTTGTTTTACTCCTACGGAGTCACCTAGTGCAG	25000 fluorescence intensity (a.u.)
TATATATATATATATATATATATATAGTTTCTTTATATATCGGAGTCACCTAGTGCAG	5160 fluorescence intensity (a.u.)
GTTTCAATCTCCATTTCTCAATCCTTCTTGAGCACCATCTCGGAGTCACCTAGTGCAG	7230 fluorescence intensity (a.u.)
ATTAATTAATCACCAAATACTAATGTCAACTCTGCAAGGACGGAGTCACCTAGTGCAG	35000 fluorescence intensity (a.u.)
TTAATTTGCTATTTATATGATTATAATATACCATCCCCGACGGAGTCACCTAGTGCAG	20500 fluorescence intensity (a.u.)
TTTTGCAAATTTGTAATAAATTAAAATTTTATTAACCATACGGAGTCACCTAGTGCAG	19800 fluorescence intensity (a.u.)
AGTCAGATCGTAAATCACTATAAATTATAGCAGCAGCACGCGGAGTCACCTAGTGCAG	9600 fluorescence intensity (a.u.)
CCTCCCTAATTAGTACTCCACTCCACAAAACACCTCCTTCCGGAGTCACCTAGTGCAG	17900 fluorescence intensity (a.u.)
CATTTGATTGTATTTCCATCTTATTCTTAATCTGTATAAGCGGAGTCACCTAGTGCAG	32100 fluorescence intensity (a.u.)
ATCCGAACATGAAGGATTGGCAATCATATTCTCATGGTGACGGAGTCACCTAGTGCAG	9570 fluorescence intensity (a.u.)
CTCACCAATTGATTTTATTCCTTGTTAAGGACGTAGGATTCGGAGTCACCTAGTGCAG	8560 fluorescence intensity (a.u.)
CAAAATGATTTGGTGAATCTAGCCAGCACATACCAATACGCGGAGTCACCTAGTGCAG	16800 fluorescence intensity (a.u.)
